# The other results are listed elsewhere or left out. Most values come without repeats; read them as rough.
# Legend:
# Assay in all cases: cell count relative to DMSO control; melanoma cells; higher = more viable cells
# Details in all cases: library dose: low library concentration; 72 h
# MZ2-MEL = test system: MZ2-MEL
# MeWo = test system: MeWo
# RPMI7951 = test system: RPMI7951
# RVH-421 = test system: RVH-421
# SkMel28 = test system: SkMel28
# SkMel2 = test system: SkMel2
# SkMel30 = test system: SkMel30
# SkMel5 = test system: SkMel5
# UACC257 = test system: UACC257
# UACC62 = test system: UACC62
# WM115 = test system: WM115
# WM1716 = test system: WM1716
# WM1745 = test system: WM1745
# WM3526 = test system: WM3526
# WM3619 = test system: WM3619
# WM451Lu = test system: WM451Lu
# 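Further: cell number obtained by counting DAPI-stained nuclei in high-throughput microscope images with image analysis software, screen run in 1,536-well plates.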
Structure (SMILES),cell count (MZ2-MEL) [%],cell count (MeWo) [%],cell count (RPMI7951) [%],cell count (RVH-421) [%],cell count (SkMel28) [%],cell count (SkMel2) [%],cell count (SkMel30) [%],cell count (SkMel5) [%],cell count (UACC257) [%],cell count (UACC62) [%],cell count (WM115) [%],cell count (WM1716) [%],cell count (WM1745) [%],cell count (WM3526) [%],cell count (WM3619) [%],cell count (WM451Lu) [%]
"CN(c1ncccc1CNc1nc(Nc2ccc3c(c2)CC(=O)N3)ncc1C(F)(F)F)S(C)(=O)=O + CC(C)CCN1c2nc(Nc3cc(F)c(O)c(F)c3)ncc2N(C)C(=O)C1C [BID1870] (first compound 0.08 µM, partner dose 0.2 µM)",95.2,103,84.9,87.7,87.3,78.5,83.4,84.7,70.4,86.3,72.2,88.1,76,96,105,72.2
"CN(c1ncccc1CNc1nc(Nc2ccc3c(c2)CC(=O)N3)ncc1C(F)(F)F)S(C)(=O)=O + Cc1cc([N+](=O)[O-])ccc1NS(=O)(=O)c1cc(Cl)ccc1Cl [FH535] (first compound 0.08 µM, partner dose 1 µM)",88.6,93.2,76.3,85,71.9,84.8,83.3,77.9,67,71.5,72,68.4,75.6,79.4,94.6,72.7
"CS(=O)(=O)c1ccc(C(=O)Nc2ccc(Cl)c(-c3ccccn3)c2)c(Cl)c1 [vismodegib] + CCN(CC)CCCCNc1ncc2cc(-c3cc(OC)cc(OC)c3)c(NC(=O)NC(C)(C)C)nc2n1 [PD173074] (first compound 1 µM, partner dose 0.1 µM)",107,100,113,125,108,110,85.9,117,102,105,108,118,105,109,111,80.6
"NC1(c2ccc(-c3nc4ccn5c(=O)[nH]nc5c4cc3-c3ccccc3)cc2)CCC1 + Cc1cc([N+](=O)[O-])ccc1NS(=O)(=O)c1cc(Cl)ccc1Cl [FH535] (first compound 0.4 µM, partner dose 1 µM)",88,101,100,72.2,64.5,84.2,86.5,70.8,66.8,70.9,68.6,109,96,81.1,96.6,100
"CS(=O)(=O)c1ccc(C(=O)Nc2ccc(Cl)c(-c3ccccn3)c2)c(Cl)c1 [vismodegib] + C[C@@H]1CCN(C(=O)CC#N)C[C@@H]1N(C)c1ncnc2[nH]ccc12 [CP690550] (first compound 1 µM, partner dose 1 µM)",107,101,92.2,104,98.3,97.5,105,99.4,109,110,94.9,106,94.8,91.3,90.4,81.8
"C=C(c1ccc(C(=O)O)cc1)c1cc2c(cc1C)C(C)(C)CCC2(C)C [Bexarotene] + O=S(=O)(c1ccccc1)N(CC(F)(F)F)c1ccc(C(O)(C(F)(F)F)C(F)(F)F)cc1 [T0901317] (first compound 2 µM, partner dose 1.4 µM)",107,82.4,89.8,109,70.8,76.6,93.6,95.3,100,93.7,88.8,70.5,68.1,82.9,94.9,80.6
"NC1(c2ccc(-c3nc4ccn5c(=O)[nH]nc5c4cc3-c3ccccc3)cc2)CCC1 + COc1cc2c(Oc3ccc4[nH]c(C)cc4c3F)ncnc2cc1OCCCN1CCCC1 [cediranib] (first compound 0.4 µM, partner dose 0.4 µM)",93.6,91.2,91.7,88.1,77.9,90.5,86.5,83.7,88.7,76.1,76.3,105,93.5,79.8,104,96.2
"CCCS(=O)(=O)Nc1ccc(F)c(C(=O)c2c[nH]c3ncc(Cl)cc23)c1F + O=C(O)C(=O)Nc1sc2c(c1C(=O)O)CCNC2 [TCS401] (first compound 0.08 µM, partner dose 1.66667 µM)",81.6,108,93.8,73.1,77.8,104,82.5,100,86.5,68.3,106,101,84.6,71.7,103,68.2
"NC1(c2ccc(-c3nc4ccn5c(=O)[nH]nc5c4cc3-c3ccccc3)cc2)CCC1 + CCc1ccc(CCOc2ccc(CC3SC(=O)NC3=O)cc2)nc1 [pioglitazone] (first compound 0.4 µM, partner dose 2 µM)",92.3,83.4,88.9,87.6,79,78.8,81.3,84.2,89.3,74.6,68.2,93.6,96.3,56.4,103,94.2
"CN(c1ncccc1CNc1nc(Nc2ccc3c(c2)CC(=O)N3)ncc1C(F)(F)F)S(C)(=O)=O + O=C(CCCCCCC(=O)Nc1ccccc1)NO [vorinostat] (first compound 0.08 µM, partner dose 0.08 µM)",95.4,90.2,76.9,101,57.6,88,118,71.3,53.6,67,89.7,101,108,106,98.9,64
